{
  "source": "paper PMC7819943",
  "about": "“Rice protein-binding microarrays: a tool to detect cis-acting elements near promoter regions in rice”",
  "note": "The other results are listed elsewhere or left out.",
  "data": [
    {"biological_target": "T1, OsWOX13 (Oryza sativa, UniProt Q5QMM3 1-267)", "T1 sequence": "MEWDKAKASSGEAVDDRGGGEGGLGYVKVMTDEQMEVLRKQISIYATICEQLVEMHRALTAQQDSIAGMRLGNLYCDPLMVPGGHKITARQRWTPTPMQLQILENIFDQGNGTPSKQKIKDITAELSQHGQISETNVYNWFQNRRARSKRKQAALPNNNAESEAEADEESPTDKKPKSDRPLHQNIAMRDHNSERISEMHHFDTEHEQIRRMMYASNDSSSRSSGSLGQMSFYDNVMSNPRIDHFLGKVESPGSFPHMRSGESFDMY", "assay": "protein-binding microarray (RPBM); PBS, 2% BSA, 51.3 ng/ul salmon testes DNA, 50 uM zinc acetate, 200 nM TF, 25 C, 1 h; high values mean tight binding", "conditions": "protein: recombinant; tags: N-terminal polyhistidine and DsRed monomer fusion (pET32a); label: CyDye5-dUTP incorporated in the synthesized complementary strand; 3' TTTTT single-stranded linker to array surface; dsDNA, one strand shown", "outline": "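Per-feature fluorescence intensity (arbitrary units), read on an Axon 4000B scanner, is the binding signal. Transcription factors carrying an N-terminal polyhistidine tag and DsRed fusion were expressed in E. coli BL21-CodonPlus and purified on Ni–NTA. A custom Agilent array, made double-stranded by primer extension with Cy5-dUTP and blocked with 2% BSA, was incubated with 200 nM protein in PBS, 2% BSA, salmon testes DNA and 50 µM zinc acetate at 25 °C for 1 h and then washed.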", "values": [
      {"sequence": "ATTAAAGCAGGAAATTTTGATTGAAACACTATGCTAGTTCCGGAGTCACCTAGTGCAG", "binding signal": "25000 fluorescence intensity (a.u.)"},
      {"sequence": "GGTGTAATTAGTATGGTGTTTTAATCGATACATGTATTGCCGGAGTCACCTAGTGCAG", "binding signal": "17200 fluorescence intensity (a.u.)"},
      {"sequence": "TTACCTAATTAGTGTGTAATTTACACCCGTCTATTATTATCGGAGTCACCTAGTGCAG", "binding signal": "36200 fluorescence intensity (a.u.)"},
      {"sequence": "CTTAATAGAAGTGGTGAGTAGGAGTAATAAACAATGGAGTCGGAGTCACCTAGTGCAG", "binding signal": "5750 fluorescence intensity (a.u.)"},
      {"sequence": "GATCTCAACTAGAACATGATTAGGAACCCAAGCAGCAAGCCGGAGTCACCTAGTGCAG", "binding signal": "4480 fluorescence intensity (a.u.)"},
      {"sequence": "AATAATTGAATATATTTTCATAATAAATGTGTGTTGAGTTCGGAGTCACCTAGTGCAG", "binding signal": "38400 fluorescence intensity (a.u.)"},
      {"sequence": "CTGCAATTGACATCTTGATCGGTTGTCCCTCGAATGGGGACGGAGTCACCTAGTGCAG", "binding signal": "25200 fluorescence intensity (a.u.)"},
      {"sequence": "CCGTCAAATAGTTATTTAATTTATGGCTACTAATTACTATCGGAGTCACCTAGTGCAG", "binding signal": "11600 fluorescence intensity (a.u.)"},
      {"sequence": "CATGCTTGATGTGTATTATCAATTTCAGGTCTTACAGGAACGGAGTCACCTAGTGCAG", "binding signal": "3840 fluorescence intensity (a.u.)"},
      {"sequence": "ATTCTAATCCAAATTATCAAGATAATAATCATAACTTTAGCGGAGTCACCTAGTGCAG", "binding signal": "10700 fluorescence intensity (a.u.)"},
      {"sequence": "AAACTAATTTTCTGTGACACTTCCAAGTGCATACCGGAGTCGGAGTCACCTAGTGCAG", "binding signal": "10300 fluorescence intensity (a.u.)"},
      {"sequence": "TGTAACTATAATGTAACTAGGGTGTAACTGGAGTATAACTCGGAGTCACCTAGTGCAG", "binding signal": "6300 fluorescence intensity (a.u.)"},
      {"sequence": "ATTAAATTAAGAAGATGTATTAACATATGATATATCGCTTCGGAGTCACCTAGTGCAG", "binding signal": "23500 fluorescence intensity (a.u.)"},
      {"sequence": "TCTAAATTCATAGAATTATGACGTGTCACATCTACGTACGCGGAGTCACCTAGTGCAG", "binding signal": "3610 fluorescence intensity (a.u.)"},
      {"sequence": "CGGGGATTGGCCCGGCGAGGCTTTCACGGTGGGGACTGGGCGGAGTCACCTAGTGCAG", "binding signal": "6760 fluorescence intensity (a.u.)"},
      {"sequence": "ATTTAGATAGATGTATATCCAAATTTATAATAGAAGAATGCGGAGTCACCTAGTGCAG", "binding signal": "7740 fluorescence intensity (a.u.)"},
      {"sequence": "TTGTGAAGCTTAATTAGGTTGATCGATTGGTCAGAACTCGCGGAGTCACCTAGTGCAG", "binding signal": "7940 fluorescence intensity (a.u.)"},
      {"sequence": "ATAAAACAGACGATCAAAATTGAAGAAAGAAACTCATGGCCGGAGTCACCTAGTGCAG", "binding signal": "6440 fluorescence intensity (a.u.)"},
      {"sequence": "TGTAATTTTAGACTTAACAATGTGCACTTTTAGTTTTAGACGGAGTCACCTAGTGCAG", "binding signal": "8310 fluorescence intensity (a.u.)"},
      {"sequence": "CTCAATTAATCATGCGCTAATAGCTCACATCGTTTTACGTCGGAGTCACCTAGTGCAG", "binding signal": "11100 fluorescence intensity (a.u.)"},
      {"sequence": "TGTGCCTTAATTGACAAACCAGGCAAGCAGGCTTTATCTACGGAGTCACCTAGTGCAG", "binding signal": "30500 fluorescence intensity (a.u.)"},
      {"sequence": "TTTGTTGTGATTTATTTTGTCATCAAAGAGACCCTAACCTCGGAGTCACCTAGTGCAG", "binding signal": "9740 fluorescence intensity (a.u.)"},
      {"sequence": "AGGGATGGGATGACATAATAATTTGCATATGTCACACGACCGGAGTCACCTAGTGCAG", "binding signal": "5380 fluorescence intensity (a.u.)"},
      {"sequence": "CCGTAATGGATCGAGGATGTCCGTCTCCTTAACCCACTTCCGGAGTCACCTAGTGCAG", "binding signal": "3300 fluorescence intensity (a.u.)"},
      {"sequence": "TGTTGAAGATGATTGGATGAACATATATGTGCAAATTTGCCGGAGTCACCTAGTGCAG", "binding signal": "24300 fluorescence intensity (a.u.)"},
      {"sequence": "CCAGCTTAATTGAGCCTGATTAGCCGAATCCATAATTGTGCGGAGTCACCTAGTGCAG", "binding signal": "63800 fluorescence intensity (a.u.)"},
      {"sequence": "CCTGACATGAAGGTGGATGTAATGGAGGATATGCATTGGGCGGAGTCACCTAGTGCAG", "binding signal": "3830 fluorescence intensity (a.u.)"},
      {"sequence": "ACTGTAATGGGATTGTTTGTGTGCTTCCTGCCTTCTCATACGGAGTCACCTAGTGCAG", "binding signal": "7990 fluorescence intensity (a.u.)"},
      {"sequence": "ACTCTCATGACAGCTCTATCAGATCATAAGAAATTTGCAACGGAGTCACCTAGTGCAG", "binding signal": "3220 fluorescence intensity (a.u.)"},
      {"sequence": "GTTAACTAATTAGGGCGTATGAACAAGTCATCGTGGCAGTCGGAGTCACCTAGTGCAG", "binding signal": "23000 fluorescence intensity (a.u.)"},
      {"sequence": "CCTACTTGGTTGATTGAGCGTTAGGAAAACATATCCATACCGGAGTCACCTAGTGCAG", "binding signal": "27900 fluorescence intensity (a.u.)"},
      {"sequence": "ATTAATCATGTTTTATCATCTAACAACAATGAAAATACTACGGAGTCACCTAGTGCAG", "binding signal": "3430 fluorescence intensity (a.u.)"},
      {"sequence": "CAACATAATTTCAGTTGCTAATGCTAAGGCCTCTCACAGTCGGAGTCACCTAGTGCAG", "binding signal": "6560 fluorescence intensity (a.u.)"},
      {"sequence": "TCTCCAAGATTGATCCGCATCTCCAACTAAACCCTCTCCTCGGAGTCACCTAGTGCAG", "binding signal": "7230 fluorescence intensity (a.u.)"},
      {"sequence": "AATAATTCACAGTAAATAACATTTATATAAATATTTTGGACGGAGTCACCTAGTGCAG", "binding signal": "5860 fluorescence intensity (a.u.)"},
      {"sequence": "AGCACAAATTTGTTCATCTTATTAATGTATATGTGTTGCTCGGAGTCACCTAGTGCAG", "binding signal": "16600 fluorescence intensity (a.u.)"},
      {"sequence": "CTAATGATGGATTAATTAGGCTTAATAAATTTGACTTGACCGGAGTCACCTAGTGCAG", "binding signal": "46400 fluorescence intensity (a.u.)"},
      {"sequence": "ATTTTGATTAGTGCGTTTGATTAGTGGTGTTTATTATGTCCGGAGTCACCTAGTGCAG", "binding signal": "46100 fluorescence intensity (a.u.)"},
      {"sequence": "CTATGAATGATACATTGAAATTAGTACTAAGAAAATTTGCCGGAGTCACCTAGTGCAG", "binding signal": "8360 fluorescence intensity (a.u.)"},
      {"sequence": "AACGCAATCAATTGTCCCTTATTTCCAGTGACATTCCTTACGGAGTCACCTAGTGCAG", "binding signal": "9760 fluorescence intensity (a.u.)"},
      {"sequence": "GGATTAAACTTATTGATGACATACCGGTGGAGTCAATGGACGGAGTCACCTAGTGCAG", "binding signal": "10700 fluorescence intensity (a.u.)"},
      {"sequence": "AAATAGTTAGATTGATAGATAAAATCATAGAAATTATTTTCGGAGTCACCTAGTGCAG", "binding signal": "12700 fluorescence intensity (a.u.)"}
    ]}
  ]
}
